For this data set the following is noted: when >10 µmol/L was utilized.

Take `Cc1cccc(NC(=O)c2sc(=S)n3c2[nH]c(=O)c2cc4c(cc23)OCO4)c1` [F0393]: the cytotoxicity result is “considerable cytotoxicity”.
